# Experimental data published in the supplement of paper PMC8728848.
# Some of the results follow.
# B1: Jacalin (Artocarpus integrifolia) (protein)
# chain: MAYSSLLSLSVLALLFSISSADTRKWFLANGINQNPIGIIEAAVGVSEDLLNLNGMEAKNDEQSGISQTVIVGPWGAKVSTSSNGKAFDDGAFTGIREINLSYNKETAIGDFQVVYDLNGSPYVGQNHKSFITGFTPVKISLDFPSEYIMEVSGYTGNVSGYVVVRSLTFKTNKKTYGPYGVTSGTPFNLPIENGLIVGFKGSIGYWLDYFSMYLSL
# Columns and labels:
# Experiment in all cases: glycan array binding signal (z-score within array); higher = stronger binding
# Conditions in all cases: glycan notation: IUPAC condensed, linker removed
# [1] = target: Neu5Ac9Ac(a2-3)Gal(b1-3)GlcNAc
# In short: (§1)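 Negative Z-scores can be read as non-binding. The Z-score is calculated within each array and then averaged across arrays of one protein sequence at different concentrations or buffers and across linkers. Arrays, 3228 in all, were curated from the Consortium for Functional Glycomics database and kept only where the protein sequence was available.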
# [2] = target: Neu5Ac9Ac(a2-3)Gal(b1-4)GlcNAc
# In short: as §1
# [3] = target: Neu5Ac9Ac(a2-6)Gal(b1-4)GlcNAc
# In short: as §1
# [4] = target: Neu5Gc(a2-3)Gal(b1-3)GlcNAc
# In short: as §1
# [5] = target: Neu5Gc(a2-3)Gal(b1-3)[Fuc(a1-4)]GlcNAc
# In short: as §1
# Neu5Gc(a2-3)Gal(b1-4)Glc = target: Neu5Gc(a2-3)Gal(b1-4)Glc
# In short: as §1
# [6] = target: Neu5Gc(a2-3)Gal(b1-4)GlcNAc
# In short: as §1
# [7] = target: Neu5Gc(a2-3)Gal(b1-4)GlcNAc(b1-3)Gal(b1-4)GlcNAc(b1-2)Man(a1-3)[Neu5Gc(a2-3)Gal(b1-4)GlcNAc(b1-3)Gal(b1-4)GlcNAc(b1-2)Man(a1-6)]Man(b1-4)GlcNAc(b1-4)GlcNAc
# In short: as §1
# [8] = target: Neu5Gc(a2-3)Gal(b1-4)[Fuc(a1-3)]GlcNAc
# In short: as §1
# [9] = target: Neu5Gc(a2-6)Gal(b1-4)GlcNAc
# In short: as §1
# Neu5Gc(a2-6)GalNAc = target: Neu5Gc(a2-6)GalNAc
# In short: as §1
# [10] = target: Neu5Gc(a2-8)Neu5Ac(a2-3)Gal(b1-4)GlcNAc
# In short: as §1
# [11] = target: Neu5Gc(a2-8)Neu5Gc(a2-3)Gal(b1-4)GlcNAc
# In short: as §1
# [12] = target: Neu5Gc(a2-8)Neu5Gc(a2-3)Gal(b1-4)GlcNAc(b1-3)Gal(b1-4)GlcNAc
# In short: as §1
# [13] = target: Neu5Gc(a2-8)Neu5Gc(a2-6)Gal(b1-4)GlcNAc
# In short: as §1
# [14] = target: Neu5Gc(b2-6)Gal(b1-4)GlcNAc
# In short: as §1
binder,measurement,setting,value
B1,glycan array binding signal (z-score),[1],-0.262
same,glycan array binding signal (z-score),[2],-0.223
same,glycan array binding signal (z-score),[3],-0.26
same,glycan array binding signal (z-score),[4],-0.267
same,glycan array binding signal (z-score),[5],-0.257
same,glycan array binding signal (z-score),Neu5Gc(a2-3)Gal(b1-4)Glc,-0.277
same,glycan array binding signal (z-score),[6],-0.274
same,glycan array binding signal (z-score),[7],-0.232
same,glycan array binding signal (z-score),[8],-0.286
same,glycan array binding signal (z-score),[9],-0.247
same,glycan array binding signal (z-score),Neu5Gc(a2-6)GalNAc,-0.263
same,glycan array binding signal (z-score),[10],-0.289
same,glycan array binding signal (z-score),[11],-0.268
same,glycan array binding signal (z-score),[12],-0.276
same,glycan array binding signal (z-score),[13],-0.274
same,glycan array binding signal (z-score),[14],-0.274
